# Data: PubChem BioAssay AID463173 (ICCB-Longwood Screening Facility, Harvard Medical School, 2010)
# Out of some 52,000 compounds screened, about 4,300 (8.3%) were called active. No stated cut-off is given here; in the data, active means survival mostly below about 52% (no sharp cut-off); inactive means mostly above about 56%. The list shows a part of the results.
# Tested on: DeltatarO mutant
# Test: S. aureus survival, RN4220 and DeltatarO strains – OD600, teichoic acid synthesis inhibitors, primary screen (AID 463173)
# Settings: S. aureus RN4220 wild type/DeltatarO growth, OD600, 18 h, active compounds read low, screened at 18.75 µg/mL (by protocol)
row,Compound,survival
1,COc1ccc(OCc2nc(C#N)c(NCc3ccccc3Cl)o2)cc1,inactive: 80%
2,CN(C)CCSc1nnc(-c2ccccc2)o1,inactive: 77%
3,COc1ccccc1OCC(=O)N/N=C1/SCC(=O)N1Cc1ccccc1,inactive: 78%
4,COc1cc(Cl)c(C)cc1Nc1nnc(-n2nc(C)cc2C)c2ccccc12,inactive: 107%
5,COc1ccc(-c2nc3sc(CCNS(=O)(=O)c4c(C)cc(C)cc4C)c(C)n3n2)cc1,active: -1%
6,CCc1cccc(NC(=O)C(Cc2ccccc2)NS(=O)(=O)c2ccc3c(c2)c(=O)n(C)c(=O)n3C)c1 (stereo not drawn),inactive: 54%
7,Cc1onc(-c2ccccc2)c1C(=O)N1CCOCC1,inactive: 77%
8,CC(=O)N1c2ccc(S(=O)(=O)NCC3CCC(C(=O)Nc4cc(C)cc(C)c4)CC3)cc2CC1C (stereo not drawn),inactive: 101%
9,Cc1ccc(C)c(S(=O)(=O)n2nc(C)c(S(=O)(=O)N3CCC(C)CC3)c2C)c1,inactive: 83%
10,Cc1ccc(-n2nc3c(N4CCC(C(=O)N(C)Cc5ccccc5)CC4)nnc(C)c3c2C)cc1,inactive: 69%
11,O=C(NCCN1CCCCC1)c1ccc(Cn2c(SCc3ccc(F)cc3)nc3cccnc32)cc1,inactive: 113%
12,CN(C)c1ccc(CN(Cc2ccco2)C(=O)c2ccc(F)cc2)cc1,inactive: 68%
13,Cc1ccc(-n2cnc3ccccc3c2=O)cc1C,inactive: 80%
14,CC(=O)Nc1cccc(NC(=O)Cc2csc(COc3cccc(C)c3)n2)c1,inactive: 89%
15,CCOC(=O)N1CCc2c(sc3c2c(=O)n(-c2ccc(CC)cc2)c(=O)n3Cc2cccc(OC)c2)C1,inactive: 75%
16,COc1ccccc1N1CCN(S(=O)(=O)c2ccc(-n3cnnn3)cc2)CC1,inactive: 75%
17,CCOc1ccc(C(=O)Nc2ccc3c(c2)N(C(C)=O)CCC3)cc1OCC,inactive: 69%
18,CCOc1ccc(C2c3c(oc4cc(C)c(C)cc4c3=O)C(=O)N2c2ccccn2)cc1 (stereo not drawn),inactive: 78%
19,CCC(C(=O)Nc1cc(C)ccc1OC)n1nnc(C(=O)OC)c1C(=O)OC (stereo not drawn),inactive: 94%
20,COc1ccc(NS(=O)(=O)c2ccc3c(c2)NC(=O)CCS3)c(OC)c1,inactive: 76%
21,CCc1ccccc1N1C(=O)N(CC(=O)c2ccc(Cl)cc2)c2ccccc2S1(=O)=O,inactive: 82%
22,COC(=O)c1c(SC)nc2ccccc2c1OCc1ccc(C)cc1,inactive: 102%

row,Compound,survival
1,CCOc1ccc(C2=C(C(=O)CC)Sc3nncn3N2C(=O)CC)cc1,active: 17%
2,COc1ccc(Nc2cc(C(=O)NCc3cccs3)c3ccccc3n2)cc1,inactive: 131%
3,O=C(CSc1ncc(-c2ccccc2)[nH]1)Nc1ccc(F)cc1F,inactive: 59%
4,CCCCOC(=O)Cn1nnc2sc(-c3ccccc3)cc2c1=O,inactive: 71%
5,CN1CCN(C(=O)C(=O)Nc2c3c(nn2-c2cccc(Cl)c2)CSC3)CC1,inactive: 76%
6,COc1ccc(CCNC(=O)CSc2cn(CCNC(=O)c3ccccc3F)c3ccccc23)cc1OC,inactive: 137%
7,COC(=O)c1c(-c2ccc(Cl)cc2)noc1N1CCN(c2cccc(C)c2C)CC1,inactive: 79%
8,CCc1cnc2c(c1SCC(=O)Nc1ccc(OC)c(OC)c1)c(=O)n(C)c(=O)n2C,inactive: 94%
9,c1ccc(-n2nc3ccc4nonc4c3n2)cc1,inactive: 86%
10,CCOC(=O)Cn1c(=O)oc2cc(S(=O)(=O)N3CCCC(C)C3)ccc21 (stereo not drawn),inactive: 130%
11,CCOC(=O)c1cc(S(=O)(=O)N2CCN(c3cccc(OC)c3)CC2)[nH]n1,inactive: 108%
12,CCCCn1cc(S(=O)(=O)c2ccc(Cl)cc2)c(=O)c2cc(F)c(N3CCCC(C)C3)cc21 (stereo not drawn),inactive: 117%
13,CC(=O)N1c2c(cc(Br)cc2S(=O)(=O)Nc2ccc(OC(F)(F)F)cc2)CC1C (stereo not drawn),inactive: 66%
14,CCOc1ccc(CNC(=O)Cn2cc3c(n2)-c2c(oc(C(=O)N4CCCC4)c2C)CC3)cc1,inactive: 84%
15,COc1ccc(S(=O)(=O)N(CCc2ccccc2)CC(N)=O)cc1,inactive: 88%
16,CCCC1=Nc2cc(C(=O)NCC(C)c3ccccc3)ccc2Sc2ccccc21 (stereo not drawn),inactive: 62%
17,COc1cccc(CNC(=O)Cn2nc3c(cc2=O)CCCC3)c1OC,inactive: 92%
18,CC1CCCN(C(=O)CCS(=O)(=O)c2cc3c(cc2Cl)NC(=O)CO3)C1 (stereo not drawn),inactive: 84%
19,Cc1ccc(C2c3c(-c4ccccc4O)n[nH]c3C(=O)N2CCc2ccccc2)cc1 (stereo not drawn),active: 32%
20,COc1ccc(NC(=O)CSc2nc(-c3ccc(OC)c(OC)c3)[nH]c2-c2ccc(C)cc2)cc1,inactive: 97%
21,COc1ccc(NCc2cc3cc4c(cc3n(CC(=O)Nc3ccccc3)c2=O)OCO4)cc1,inactive: 94%
22,CCOC(=O)Cc1ccc(NC(=O)N(C(C)C)C2CCN(C(C)=O)CC2)cc1,inactive: 80%

row,Compound,survival
1,O=C(Nc1ccc(Cl)cc1)c1cc(S(=O)(=O)N2CCCc3ccccc32)ccc1F,inactive: 116%
2,O=C(CCCn1c(=O)[nH]c2ccsc2c1=O)N1CCN(c2cccc(C(F)(F)F)c2)CC1,inactive: 73%
3,Cc1cc(Cl)ccc1NC(=O)CN1C(=O)COc2ccc(S(=O)(=O)N3CCC(C)CC3)cc21,inactive: 101%
4,CCOC(=O)c1noc2ncn(Cc3cccc(C#N)c3)c(=O)c12,inactive: 130%
5,Cc1c(C(=O)OC2CCC(C)CC2)[nH]c2c1C(=O)CC(c1ccccc1Cl)C2 (stereo not drawn),inactive: 81%
6,CCOc1ccc(CCNC(=O)CCCc2nnc3n(C)c(=O)c4sccc4n23)cc1OCC,inactive: 93%
7,COc1ccccc1CN(Cc1ccco1)c1cnc(S(C)(=O)=O)nc1C(=O)Nc1ccccc1Cl,active: 46%
8,CCNc1nc(NC(C)CC)nc(Oc2ccc(OCC)nn2)n1 (stereo not drawn),inactive: 139%
9,COc1ccc(NC(=O)NCc2c(-n3cccc3)sc3c2CCCC3)c(OC)c1,inactive: 66%
10,CCc1cccc(C)c1NC(=O)NC1COc2ccccc2C1 (stereo not drawn),inactive: 106%
11,COc1ccc(OCC(=O)Nc2nc(-c3ccc(Br)cc3)ns2)cc1,inactive: 59%
12,CCOc1ccc2c(c1)sc1nc(=O)n(-c3ccc(Cl)c(Cl)c3)c(=O)n12,inactive: 88%
13,CCOC(=O)CCn1cnc2onc(-c3cc(OC)ccc3Cl)c2c1=O,inactive: 88%
14,Cc1ccc(OCc2nc(-c3ccc(C(=O)N4CCN(c5cccc(C(F)(F)F)c5)CC4)cc3)oc2C)cc1,inactive: 71%
15,N#CC(C#N)=Cc1ccc(OCC(O)Cn2c3ccccc3c3ccccc32)cc1 (stereo not drawn),inactive: 75%
16,CSc1cccc(NC(=O)C2CCN(S(=O)(=O)c3ccc4c(c3)CCCN4C(=O)C3CCC3)CC2)c1,inactive: 71%
17,COc1ccc(N(CC(C)C)S(=O)(=O)c2nnc(NC(=O)c3cccs3)s2)cc1,active: 42%
18,NS(=O)(=O)c1ccc(N(C(=O)Cn2nnc3ccccc32)C(C(=O)NC2CCCC2)c2cccs2)cc1 (stereo not drawn),inactive: 62%
19,Cc1c(Cl)cccc1NC(=O)CNS(=O)(=O)c1cccs1,inactive: 86%
20,Cc1cc(=O)[nH]c2nnc(SCc3c(F)cccc3Cl)n12,inactive: 125%
21,CS(=O)(=O)NCC(c1ccco1)N1CCN(c2ccc(F)cc2)CC1 (stereo not drawn),inactive: 87%
22,COCCNC(=O)CCn1c(=O)c2cc(OC)c(OC)cc2n(CC(=O)Nc2ccccc2C)c1=O,inactive: 93%

row,Compound,survival
1,O=S(=O)(c1ccc(-c2cc(C(F)(F)F)on2)s1)N1CCN(c2ccccc2)CC1,inactive: 75%
2,COc1ccc(CSc2nnc(C)s2)cc1F,inactive: 106%
3,CCN(C(=O)CSc1nnc2scc(-c3cccc(OC)c3)n12)c1ccccc1,inactive: 94%
4,Cc1cccc(C)c1NC(=O)C(=O)NCC(c1ccc2c(c1)OCO2)N1CCOCC1 (stereo not drawn),inactive: 80%
5,CCOC(=O)c1cnc2c(Cl)cc(Cl)cc2c1Nc1cc(C(=O)O)ccc1C,inactive: 60%
6,Cc1cccc(NC(=O)c2ccc3c(O)c(S(=O)(=O)c4ccccc4)c(=O)[nH]c3c2)c1C,inactive: 88%
7,Cc1ccccc1-c1nc(CS(=O)(=O)CC(=O)NCCc2ccccc2)c(C)o1,inactive: 59%
8,O=C(Nc1ccc2nc(SCC(=O)N3CCc4ccccc43)sc2c1)c1cccc(F)c1,inactive: 69%
9,CCOC(=O)c1sc(=S)n(C)c1C,inactive: 88%
10,COc1ccc(Cl)cc1NC(=O)CSc1nc2ccccc2c2nc(-c3ccccc3)nn12,inactive: 94%
11,Cc1ccc(C(=O)N2CCc3cc(CNC(=O)c4ccc(Br)cc4)ccc32)cc1,inactive: 83%
12,Cc1ccc(C(=O)Nc2ccccc2)cc1S(=O)(=O)Nc1ccc(Br)cc1,active: 6%
13,CCn1c(SCc2cccc(Br)c2)nnc1-c1nonc1NC(C)=O,inactive: 108%
14,CC(C)CNC(=O)C(=O)Nc1c2c(nn1-c1ccccc1)CS(=O)(=O)C2,inactive: 81%
15,CSc1cccc(NC(=O)Cn2c(=O)n(Cc3ccccc3)c(=O)c3sc4ccccc4c32)c1,inactive: 91%
16,CC(=O)Nc1cc(C(=O)NCc2ccc(C)cc2)ccc1S(=O)(=O)c1ccc(Cl)cc1,inactive: 87%
17,CCOc1ccc2nc(NCCNC(=S)NC)c(C#N)cc2c1,inactive: 79%
18,COCCCn1c(=N)c(C(=O)NCc2ccco2)cc2c(=O)n3cccc(C)c3nc21,inactive: 57%
19,CCc1ccccc1NC(=O)Nc1cc(C(=O)NCc2cccc(F)c2)ccc1N1CCCC1,inactive: 88%
20,O=C(Cn1ncn2nc(-c3cccs3)cc2c1=O)NCc1ccc(Cl)cc1,inactive: 63%
21,CCc1ccc(S(=O)(=O)c2nnn3c2nc(Nc2ccc(C)c(Cl)c2)c2sccc23)cc1,inactive: 41%
22,Cc1oc(-c2cccc(Cl)c2)nc1CN1CCCC(C(=O)NCCc2ccc(Cl)cc2)C1 (stereo not drawn),active: -6%
